Data taken from US20180148492A1 (CHILDREN S HOSPITAL MEDICAL CENTER, published 2018).

Target: T1, BSA (UniProt P02769)
T1 construct: Control coating of the wells
Test: solid phase adhesion assay, ELISA read-out (A450 nm-A900 nm)
Protocol: Recombinant human integrin α4β7 (R&D Systems) was diluted to the indicated concentration in buffer (150 mM NaCl, 20 mM HEPES); 100 microliters per well was added to Costar half-well ELISA plates (Corning Inc.) and incubated overnight at 4° C. The following day, wells were washed and blocked with 5% BSA in buffer (150 mM NaCl, 20 mM HEPES) overnight at 4° C. The following day, the wells were washed, and IgG1× or CDH26-hIgG1-Fc diluted in assay buffer (150 mM NaCl, 20 mM HEPES, 1 mM CaCl₂, 1 mM MgCl₂, 1 mM MnCl₂) containing 5% BSA was added to wells for 60 min at 37° C. Wells were washed 3×, and detection antibody (biotinylated anti-human IgG1 (Vector Laboratories, Inc.); 0.5 micrograms per milliliter in assay buffer with 5% BSA) was added for 2 h at room temperature. Wells were washed 3× with assay buffer with 5% BSA and streptavidin-HRP was added (1:200 in assay buffer with 5% BSA; R & D Systems). Wells were washed 3× with assay buffer with 5% BSA, and a 1:1 dilution of TMB substrate (BD Biosciences) was added. The reaction was stopped by the addition of 2N H2SO4. Absorbance at 450 nm and 900 nm was measured using a plate reader (BioTek).

T1 sequence (P02769 25-607 limits assumed): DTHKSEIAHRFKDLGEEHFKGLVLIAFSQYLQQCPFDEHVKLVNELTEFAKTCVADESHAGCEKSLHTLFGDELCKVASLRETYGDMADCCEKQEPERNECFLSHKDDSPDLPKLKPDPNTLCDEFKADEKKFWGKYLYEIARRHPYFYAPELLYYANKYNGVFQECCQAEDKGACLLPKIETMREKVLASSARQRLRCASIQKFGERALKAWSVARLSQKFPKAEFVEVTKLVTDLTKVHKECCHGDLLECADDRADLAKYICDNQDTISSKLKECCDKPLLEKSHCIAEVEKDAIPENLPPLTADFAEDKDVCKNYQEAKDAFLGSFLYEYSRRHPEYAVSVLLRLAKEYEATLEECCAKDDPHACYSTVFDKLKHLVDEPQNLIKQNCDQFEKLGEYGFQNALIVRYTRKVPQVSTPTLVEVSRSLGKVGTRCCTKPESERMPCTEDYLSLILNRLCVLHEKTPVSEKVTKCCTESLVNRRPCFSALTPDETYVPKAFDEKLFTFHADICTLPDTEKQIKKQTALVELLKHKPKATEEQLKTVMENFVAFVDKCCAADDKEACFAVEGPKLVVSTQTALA

B1: CDH26-hIgG1-Fc fusion protein (Fc fusion)
chain: DSVQQETDDLTKQTKEKIYQPLRRSKRRWVITTLELEEEDPGPFPKLIGELFNNMSYNMSLMYLISGPGVDEYPEIGLFSLEDHENGRIYVHRPVDREMTPSFTVYFDVVERSTGKIVDTSLIFNIRISDVNDHAPQFPEKEFNITVQENQSAGQPIFQMLAVDLDEENTPNSQVLYFLISQTPLLKESGFRVDRLSGEIRLSGCLDYETAPQFTLLIRARDCGEPSLSSTTTVHVDVQEGNNHRPAFTQENYKVQIPEGRASQGVLRLLVQDRDSPFTSAWRAKFNILHGNEEGHFDISTDPETNEGILNVIKPLDYETRPAQSLIIVVENEERLVFCERGKLQPPRKAAASATVSVQVTDANDPPAFHPQSFIVNKEEGARPGTLLGTFNAMDPDSQIRYELVHDPANWVSVDKNSGVVITVEPIDRESPHVNNSFYVIIIHAVDDGFPPQTATGTLMLFLSDINDNVPTLRPRSRYMEVCESAVHEPLHIEAEDPDLEPFSDPFTFELDNTWGNAEDTWKLGRNWGQSVELLTLRSLPRGNYLVPLFIGDKQGLSQKQTVHVRICPCASGLTCVELAD[omitted - human IgG1 Fc]
notes: No propeptide cleavage is stated; also called CDH26-Fc; recombinant CDH26-hIgG1-Fc
B1: no binding.
